Measurements reported in patent publication US20220324876A1, “4-SUBSTITUTED PYRANO[3,4,b]PYRAZINE KAPPA AGONISTS FOR TREATING DRUG DEPENDENCY” (The Rockefeller University, priority 2019, published 2022).

Each compound was assayed against kappa opioid receptor (KOP-R, hOPRK1) (Homo sapiens, UniProt P41145) (assay: biochemical). Conditions: not given.
UniProt P41145, sequence (P41145 whole entry): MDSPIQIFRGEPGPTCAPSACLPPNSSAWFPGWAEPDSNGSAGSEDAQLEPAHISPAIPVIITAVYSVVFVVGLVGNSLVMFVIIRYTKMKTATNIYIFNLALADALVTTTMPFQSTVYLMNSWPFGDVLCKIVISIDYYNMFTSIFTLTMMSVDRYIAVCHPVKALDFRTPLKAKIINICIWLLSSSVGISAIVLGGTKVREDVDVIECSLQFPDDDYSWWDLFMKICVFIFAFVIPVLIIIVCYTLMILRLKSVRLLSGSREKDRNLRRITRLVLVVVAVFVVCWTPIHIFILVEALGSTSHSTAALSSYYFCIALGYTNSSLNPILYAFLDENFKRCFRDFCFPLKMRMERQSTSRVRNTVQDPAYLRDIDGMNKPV

| Structure (SMILES) | IC50 |
| --- | --- |
| Cn1ccc(CN2CCN(C(=O)Cc3ccc(Cl)c(Cl)c3)[C@H]3[C@H](N4CCCC4)COC[C@@H]32)n1 (single isomer, unassigned) [Example 5A135B] | 123 nM |

Same assay, conditions: Binding IC50 (nM), Table D; 1.0 nM [3H]U69,593, 60 min 30° C.

| Structure (SMILES) | IC50 |
| --- | --- |
| O=C(Cc1ccc(Cl)c(Cl)c1)N1CCN(Cc2ccc(F)cc2)[C@@H]2COC[C@H](N3CCCC3)[C@H]21 (single isomer, unassigned) [Example 5A136A] | 24 nM |
| O=C(Cc1ccc(Cl)c(Cl)c1)N1CCN(Cc2ccon2)[C@@H]2COC[C@H](N3CCCC3)[C@H]21 [Example 5A86A] | 1.7 nM |
| O=C(Cc1ccc(Cl)c(Cl)c1)N1CCN(S(=O)(=O)CCO)[C@H]2COC[C@@H](N3CCCC3)[C@@H]21 (single isomer, unassigned) [Example 5A140B] | 17 nM |
| O=C(Cc1ccc(Cl)c(Cl)c1)N1CCN(Cc2ncco2)[C@@H]2COC[C@H](N3CCCC3)[C@H]21 (racemic) [rac-5A111] | 6.5 nM |
| CC(F)(F)CN1CCN(C(=O)Cc2ccc(Cl)c(Cl)c2)[C@H]2[C@H](N3CCCC3)COC[C@@H]21 [Example 5A127B] | 20 nM |
| COCCN1CCN(C(=O)Cc2ccc(Cl)c(Cl)c2)[C@H]2[C@H](N3CCCC3)COC[C@@H]21 (single isomer, unassigned) [Example 5A141B] | 21 nM |
| O=C(Cc1ccc(Cl)c(Cl)c1)N1CCN(CC2CCCO2)[C@@H]2COC[C@H](N3CCCC3)[C@H]21 (single isomer, unassigned) [Example 5A138A] | 101 nM |
| O=C(Cc1ccc(Cl)c(Cl)c1)N1CCN(C(=O)C2(O)CCC2)[C@H]2COC[C@@H](N3CCCC3)[C@@H]21 (single isomer, unassigned) [Example 5A128B] | 19 nM |
| Cn1nccc1CN1CCN(C(=O)Cc2ccc(Cl)c(Cl)c2)[C@H]2[C@H]1COC[C@@H]2N1CCCC1 (racemic) [rac-5A104] | 78 nM |
| Cc1noc(CN2CCN(C(=O)Cc3ccc(Cl)c(Cl)c3)[C@H]3[C@H]2COC[C@@H]3N2CCCC2)n1 (racemic) [rac-5A105] | 37 nM |
| O=C(Cc1ccc(Cl)c(Cl)c1)N1CCN(Cc2cccc(F)c2)[C@H]2COC[C@@H](N3CCCC3)[C@@H]21 (single isomer, unassigned) [Example 5A145B] | 59 nM |
| O=C(Cc1ccc(Cl)c(Cl)c1)N1CCN(C(=O)C2(O)CCCC2)[C@H]2COC[C@@H](N3CCCC3)[C@@H]21 (single isomer, unassigned) [Example 5A125B] | 53 nM |
| O=C(Cc1ccc(Cl)c(Cl)c1)N1CCN(CC2CCCO2)[C@@H]2COC[C@H](N3CCCC3)[C@H]21 (single isomer, unassigned) [Example 5A138C] | 31 nM |
| O=C(Cc1ccc(Cl)c(Cl)c1)N1CCN(CCO)[C@H]2COC[C@@H](N3CCCC3)[C@@H]21 (single isomer, unassigned) [Example 5A74B] | 13 nM |
| O=C(Cc1ccc(Cl)c(Cl)c1)N1CCN(CC(O)c2ccon2)[C@@H]2COC[C@H](N3CCCC3)[C@H]21 (stereo partly shown) [Example 5A137] | 9.4 nM |
